Source: the supplement of paper PMC4967469
pIC50: −log10 of the molar value. The IC50 comes from the fitted curve, where viability falls to half of the control; fits outside the tested doses are given as limits. AUC is the area under the same curve over the 256-fold range up to the top dose, as a fraction; the more sensitive the line, the further below 1. For some assays here: An inferred top dose comes from the curve model; the source does not state it. For some assays here: Drugs with an entry number were screened twice under separate entries, and the two screens often disagree.

Assays:
Assay in all cases: Viability of human cancer cell lines after 72 h of drug (GDSC screen)
[1] = compound: Nc1ccc(C(=O)Nc2cccc(-c3nc(N4CCOCC4)c4oc5ncccc5c4n3)c2)cn1 [YM201636]; settings: top dose 5.12 µM; top dose inferred
Procedure: (§1)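 Human cancer cell lines in 384-well plates, medium with 10% serum, drug for 72 h over a 256-fold dose range (nine 2-fold or five 4-fold steps up to the top dose). Adherent lines were fixed and stained with the nucleic acid dye Syto60, suspension lines read with resazurin; signal relative to control wells, capped at 0 and 100%. One two-parameter sigmoid per drug and line, fitted in a mixed model over all curves with the slope shared within a line.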

[2] = compound: Cn1cnc2c(F)c(Nc3ccc(Br)cc3Cl)c(C(=O)NOCCO)cc21 [AZD6244]; settings: top dose 4 µM; screen: GDSC drug entry 1498; top dose inferred
Procedure: as §1

[3] = compound: NC(=O)C1CCCc2c1[nH]c1ccc(Cl)cc21 [EX-527]; settings: top dose 20 µM
Procedure: as §1

[4] = compound: N#CC(c1ccnc(NCCc2cccnc2)n1)c1nc2ccccc2s1 [AS601245]; settings: top dose 8 µM; top dose inferred
Procedure: as §1

Cell Line	AUC [1]	pIC50 [1]	AUC [2]	pIC50 [2]	AUC [3]	pIC50 [3]	AUC [4]	pIC50 [4]
NCI-H2172 (non-small cell lung carcinoma, adherent)	0.757	5.63	0.968	< 5.40	0.972	< 4.70	0.696	5.66
NCI-H2228 (lung adenocarcinoma, adherent)	0.819	< 5.29	0.89	< 5.40	0.977	< 4.70	0.735	5.47
NCI-H2291 (lung adenocarcinoma, adherent)	0.983	< 5.29	0.48	6.67	0.976	< 4.70	0.984	< 5.10
NCI-H2342 (lung adenocarcinoma, adherent)	0.974	< 5.29	0.975	< 5.40	0.984	< 4.70	0.76	5.51
NCI-H2347 (lung adenocarcinoma, adherent)	0.915	< 5.29	0.57	6.39	0.978	< 4.70	0.876	< 5.10
NCI-H2405 (lung adenocarcinoma, adherent)	0.957	< 5.29	0.859	5.41	0.985	< 4.70	0.803	5.35
NCI-H2444 (non-small cell lung carcinoma, adherent)	0.974	< 5.29	0.929	< 5.40	0.988	< 4.70	0.923	< 5.10
NCI-H2452 (mesothelioma, adherent)	0.973	< 5.29	0.816	5.56	0.984	< 4.70	0.977	< 5.10
NCI-H3122 (lung adenocarcinoma, adherent)	0.941	< 5.29	0.946	< 5.40	0.983	< 4.70	0.728	5.64
NUGC-3 (stomach, adherent)	0.948	< 5.29	0.767	5.78	0.984	< 4.70	0.889	< 5.10
NUGC-4 (stomach, adherent)	0.783	5.67	0.323	7.10	0.983	< 4.70	0.665	5.84
NY (osteosarcoma, adherent)	0.984	< 5.29	0.985	< 5.40	0.987	< 4.70	0.776	5.50
OAW-28 (ovary, adherent)	0.866	< 5.29	0.863	< 5.40	0.983	< 4.70	0.891	< 5.10
OAW-42 (ovary, adherent)	0.975	< 5.29	0.834	5.54	0.971	< 4.70	0.741	5.58
OCUM-1 (stomach, adherent)	0.987	< 5.29	0.217	7.48	0.981	< 4.70	0.828	5.24
OE19 (oesophagus, adherent)	0.982	< 5.29	0.907	< 5.40	0.978	< 4.70	0.787	5.40
OE21 (oesophagus, adherent)	0.93	< 5.29	0.732	5.83	0.975	< 4.70	0.841	< 5.10
OE33 (oesophagus, adherent)	0.792	5.55	0.888	< 5.40	0.981	< 4.70	0.815	5.26
OSC-19 (head and neck, adherent)	0.939	< 5.29	0.925	< 5.40	0.978	< 4.70	0.839	5.24
OSC-20 (head and neck, adherent)	0.949	< 5.29	0.872	< 5.40	0.979	< 4.70	0.799	5.33
OVCAR-3 (ovary, adherent)	0.985	< 5.29	0.981	< 5.40	0.983	< 4.70	0.877	< 5.10

Cell Line	AUC [1]	pIC50 [1]	AUC [2]	pIC50 [2]	AUC [3]	pIC50 [3]	AUC [4]	pIC50 [4]
OVCAR-5 (ovary, adherent)	0.966	< 5.29	0.453	6.74	0.982	< 4.70	0.863	< 5.10
OVCAR-8 (ovary, adherent)	0.811	5.63	0.937	< 5.40	0.988	< 4.70	0.818	5.41
OVISE (ovary, adherent)	0.886	< 5.29	0.836	< 5.40	0.981	< 4.70	0.867	< 5.10
OVKATE (ovary, adherent)	0.724	5.66	0.849	< 5.40	0.973	< 4.70	0.923	< 5.10
OVMIU (ovary, adherent)	0.778	5.58	0.826	5.49	0.981	< 4.70	0.702	5.67
OVTOKO (ovary, adherent)	0.949	< 5.29	0.824	5.48	0.976	< 4.70	0.627	5.91
PA-TU-8902 (pancreas, adherent)	0.93	< 5.29	0.397	6.91	0.95	< 4.70	0.937	< 5.10
PA-TU-8988T (pancreas, adherent)	0.961	< 5.29	0.588	6.36	0.971	< 4.70	0.839	5.26
PANC-02-03 (pancreas, adherent)	0.851	< 5.29	0.596	6.32	0.981	< 4.70	0.962	< 5.10
PANC-03-27 (pancreas, adherent)	0.951	< 5.29	0.822	5.67	0.987	< 4.70	0.715	5.71
PANC-04-03 (pancreas, adherent)	0.963	< 5.29	0.675	5.98	0.974	< 4.70	0.944	< 5.10
PANC-08-13 (pancreas, adherent)	0.881	< 5.29	0.953	< 5.40	0.983	< 4.70	0.732	5.55
PANC-10-05 (pancreas, adherent)	0.899	< 5.29	0.77	5.71	0.971	< 4.70	0.773	5.40
PC-3 (prostate, adherent)	0.878	< 5.29	0.963	< 5.40	0.97	< 4.70	0.861	< 5.10
PC-3 [JPC-3] (lung adenocarcinoma, adherent)	0.936	< 5.29	0.948	< 5.40	0.954	< 4.70	0.739	5.51
PC-14 (lung adenocarcinoma, adherent)	0.909	< 5.29	0.972	< 5.40	0.989	< 4.70	0.768	5.57
PCI-4B (head and neck, adherent)	0.945	< 5.29	0.658	6.17	0.983	< 4.70	0.857	5.22
PCI-6A (head and neck, adherent)	0.885	< 5.29	0.935	< 5.40	0.988	< 4.70	0.859	5.19
PCI-15A (head and neck, adherent)	0.981	< 5.29	0.885	< 5.40	0.983	< 4.70	0.881	< 5.10
PCI-30 (head and neck, adherent)	0.934	< 5.29	0.931	< 5.40	0.984	< 4.70	0.985	< 5.10
PCI-38 (head and neck, adherent)	0.887	< 5.29	0.906	< 5.40	0.985	< 4.70	0.918	< 5.10

Cell Line	AUC [1]	pIC50 [1]	AUC [2]	pIC50 [2]	AUC [3]	pIC50 [3]	AUC [4]	pIC50 [4]
PE/CA-PJ15 (head and neck, adherent)	0.965	< 5.29	0.682	6.07	0.978	< 4.70	0.986	< 5.10
PL4 (pancreas, adherent)	0.958	< 5.29	0.669	6.12	0.986	< 4.70	0.902	< 5.10
PL18 (pancreas, adherent)	0.981	< 5.29	0.82	5.64	0.983	< 4.70	0.969	< 5.10
RCM-1 (large intestine, adherent)	0.985	< 5.29	0.722	5.91	0.979	< 4.70	0.906	< 5.10
RD (rhabdomyosarcoma, adherent)	0.872	< 5.29	0.605	6.30	0.984	< 4.70	0.864	< 5.10
RERF-GC-1B (stomach, adherent)	0.85	5.34	0.869	< 5.40	0.96	< 4.70	0.974	< 5.10
RERF-LC-KJ (lung adenocarcinoma, adherent)	0.875	< 5.29	0.945	< 5.40	0.987	< 4.70	0.773	5.49
RERF-LC-MS (lung adenocarcinoma, adherent)	0.912	< 5.29	0.755	5.86	0.983	< 4.70	0.93	< 5.10
RERF-LC-Sq1 (lung squamous cell carcinoma, adherent)	0.955	< 5.29	0.83	< 5.40	0.979	< 4.70	0.787	5.27
RH-41 (rhabdomyosarcoma, adherent)	0.989	< 5.29	0.976	< 5.40	0.991	< 4.70	0.921	< 5.10
RKN (ovary, adherent)	0.9	< 5.29	0.356	7.01	0.982	< 4.70	0.875	< 5.10
RMG-I (ovary, adherent)	0.93	< 5.29	0.488	6.64	0.981	< 4.70	0.885	< 5.10
RO82-W-1 (thyroid, adherent)	0.982	< 5.29	0.88	< 5.40	0.982	< 4.70	0.849	< 5.10
RPMI-2650 (head and neck, adherent)	0.814	5.51	0.978	< 5.40	0.973	< 4.70	0.739	5.59
RT4 (bladder, adherent)	0.844	5.40	0.951	< 5.40	0.987	< 4.70	0.867	5.11
RT-112 (bladder, adherent)	0.913	< 5.29	0.857	5.44	0.982	< 4.70	0.888	< 5.10
RVH-421 (melanoma, adherent)	0.811	5.39	0.628	6.19	0.971	< 4.70	0.898	< 5.10
SAS (head and neck, adherent)	0.95	< 5.29	0.771	5.77	0.98	< 4.70	0.886	< 5.10
SAT (head and neck, adherent)	0.964	< 5.29	0.659	6.06	0.975	< 4.70	0.761	5.35
